Source: a compilation of properties of binary mixtures (doi:10.1021/je300093r)
Some of these densities may be calculated back from excess volumes.

Assay: xn = mol fraction of the nth substance listed
Conditions: 101 kPa

CCCC[n+]1ccccc1.O=S(=O)([N-]S(=O)(=O)C(F)(F)F)C(F)(F)F + CCCC[n+]1ccccc1.F[B-](F)(F)F
mass density [kg/m3]
Conditions | 303.15 K | 313.15 K | 323.15 K | 333.15 K | 343.15 K | 353.15 K
x1 = 0.0442 | 1223.8 | 1216.8 | 1209.8 | 1202.8 | 1195.9 | 1189.1
x1 = 0.1119 | 1246.1 | 1238.9 | 1231.7 | 1224.6 | – | –
x1 = 0.2162 | – | 1270.5 | 1263 | 1255.5 | – | 1240.7
x1 = 0.3217 | 1307.2 | 1299.4 | 1291.6 | 1283.8 | 1276.1 | 1268.5
x1 = 0.4327 | 1335 | – | 1318.8 | 1310.7 | 1302.6 | –
x1 = 0.5429 | 1360.1 | – | 1343.3 | 1335 | 1326.7 | –
x1 = 0.6523 | 1382.8 | – | 1365.5 | – | 1348.4 | 1339.9
x1 = 0.7643 | – | 1395.3 | 1386.4 | 1377.6 | 1368.9 | 1360.1
x1 = 0.8822 | 1424.9 | – | 1406.7 | 1397.7 | – | 1379.8
x1 = 0.9467 | 1435.5 | 1426.3 | 1417.1 | 1408 | 1398.9 | 1389.9
x1 = 1 | 1444 | 1434.7 | – | 1416.2 | 1407.1 | –

CCCC[n+]1ccccc1.F[B-](F)(F)F + CCCC[n+]1ccccc1.O=S(=O)([N-]S(=O)(=O)C(F)(F)F)C(F)(F)F
x2 = 0
Conditions | mass density [kg/m3]
313.15 K | 1203.5
323.15 K | 1196.7
333.15 K | 1189.9
343.15 K | 1183.2
